# Experimental data: PMC4336329 (PLoS ONE, 2015)
# The campaign covered roughly 310,000 compounds. About 14,000 (4.5%) showed an effect of 50% or more. Effects have a minus sign here. The list shows a part of the results.
# Target: human ether-à-go-go-related gene (hERG) potassium channel (human, UniProt Q12809)
# Experiment: primary screen, population patch clamp on CHO cells stably expressing hERG
# 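Further: peak tail current of the secondary pulse compared with the same well before compound.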
# Chain of human ether-à-go-go-related gene (hERG) potassium channel (Q12809 whole entry, looked up): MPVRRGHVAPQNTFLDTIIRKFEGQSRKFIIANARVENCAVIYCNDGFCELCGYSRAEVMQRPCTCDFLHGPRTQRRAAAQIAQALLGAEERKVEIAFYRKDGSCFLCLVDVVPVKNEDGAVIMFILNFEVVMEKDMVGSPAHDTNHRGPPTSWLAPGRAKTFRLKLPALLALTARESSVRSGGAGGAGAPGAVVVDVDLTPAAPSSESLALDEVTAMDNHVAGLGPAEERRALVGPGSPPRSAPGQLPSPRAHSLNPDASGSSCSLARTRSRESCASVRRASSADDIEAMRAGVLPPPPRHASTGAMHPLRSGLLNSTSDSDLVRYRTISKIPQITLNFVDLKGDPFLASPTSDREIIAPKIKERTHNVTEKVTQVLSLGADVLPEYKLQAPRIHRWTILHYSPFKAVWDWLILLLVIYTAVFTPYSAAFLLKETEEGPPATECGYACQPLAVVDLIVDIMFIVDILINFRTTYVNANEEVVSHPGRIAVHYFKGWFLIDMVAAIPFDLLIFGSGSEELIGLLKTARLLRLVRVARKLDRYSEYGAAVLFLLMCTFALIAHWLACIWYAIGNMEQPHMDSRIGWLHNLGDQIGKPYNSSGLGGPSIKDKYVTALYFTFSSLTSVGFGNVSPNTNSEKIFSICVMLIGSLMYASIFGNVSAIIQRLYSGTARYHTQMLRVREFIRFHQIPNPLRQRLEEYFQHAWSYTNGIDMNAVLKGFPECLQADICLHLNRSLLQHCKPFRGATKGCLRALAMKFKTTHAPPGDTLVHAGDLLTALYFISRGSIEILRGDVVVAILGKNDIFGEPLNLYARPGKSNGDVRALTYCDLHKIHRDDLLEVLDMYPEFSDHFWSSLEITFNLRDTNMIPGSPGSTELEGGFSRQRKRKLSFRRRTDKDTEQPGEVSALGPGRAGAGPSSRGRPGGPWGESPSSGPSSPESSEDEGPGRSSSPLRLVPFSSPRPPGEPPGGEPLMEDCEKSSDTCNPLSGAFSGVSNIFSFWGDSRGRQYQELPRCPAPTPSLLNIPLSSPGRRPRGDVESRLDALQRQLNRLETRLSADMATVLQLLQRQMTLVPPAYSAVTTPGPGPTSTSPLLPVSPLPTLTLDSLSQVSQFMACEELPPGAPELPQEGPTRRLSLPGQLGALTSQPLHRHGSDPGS
row,SMILES,"hERG current change (%, negative = inhibition) at 10uM"
1,CCCC(O)(c1ccc(OC)cc1)C(CN1CCOCC1)c1ccccc1 (stereo not drawn),-7.61%
2,COc1ccc(C=O)cc1Cn1c(C)cc(C)c(C#N)c1=O,4.1%
3,CC(c1ccccc1)N1C(=O)CC(Sc2ncccc2C(=O)O)C1=O (stereo not drawn),11%
4,CN(CCOc1ccccc1)C(=O)c1cc([N+](=O)[O-])ccc1N1CCOCC1,-27.3%
5,CN(c1ccccc1)S(=O)(=O)c1cccc(NC(=O)c2cc(=O)c3ccccc3o2)c1,11.7%
6,CCCCN(C(=O)NC(=O)Nc1nc2ccc(OC)cc2s1)S(C)(=O)=O,20.3%
7,CC1CCCN(CCCNC(=O)c2ccc3c(c2)N(Cc2ccc(F)cc2)C(=O)c2ccccc2S3=O)C1 (stereo not drawn),-32.9%
8,Cc1ccc2nc(-c3ccc(Br)o3)oc(=O)c2c1,-10.1%
9,Cc1ccc(-c2csc3nc(C)n(N)c(=O)c23)cc1,9.92%
10,Cc1cc(C)n(C(=O)c2cc3c(s2)CCCC3)n1,0.691%
11,CCOc1ccc(Cl)cc1S(=O)(=O)N1CCC(C(=O)NCc2ccccn2)CC1,-12.3%
12,N#Cc1nc(-c2ccccc2)oc1NCCCn1ccnc1,-27.5%
13,COc1cc(OC)cc(C(=O)NNC(=S)NCc2ccco2)c1,-4.66%
14,COc1ccc(C2=NN(C3=NN=C(N)Cc4ncnn43)C(O)(C(F)(F)F)C2)cc1 (stereo not drawn),13.8%
15,Nc1nnc(SCC(=O)Nc2cc(S(=O)(=O)N3CCOCC3)ccc2N2CCCC2)s1,-1.6%
16,COc1ccc(S(=O)(=O)N2CCC(C)CC2)cc1OC,2.09%
17,OC(c1ccc(Cl)cc1)C(O)c1nc2ccccc2[nH]1 (stereo not drawn),-2.47%
18,O=C(COC(=O)c1ccccc1O)NCCCc1ccccc1,19.6%
19,CC12CN3CC(C)(CN(C1)C3c1ccc(Cl)cc1Cl)C2O (stereo not drawn),2.66%
20,CC1(c2nnc(Cc3ccccc3)o2)CC(c2ccncc2)=NO1 (stereo not drawn),2.48%
21,Cc1ccc(Cl)cc1N1CCN(C(=O)c2ccc(NC3=NC4CS(=O)(=O)CC4S3)cc2)CC1 (stereo not drawn),6.77%
22,O=C(c1ccc2c(c1)OCO2)N1CCC(Cc2ccccc2)CC1,-8.66%
23,CCOc1ccc(N(CC)S(=O)(=O)c2c(C)[nH]c(=O)[nH]c2=O)cc1,14%

row,SMILES,"hERG current change (%, negative = inhibition) at 10uM"
1,CCn1nc(C)c(CNC(=O)CCc2nnc(Cc3c[nH]c4ccccc34)o2)c1C,42%
2,Cc1cc(C)cc(N=c2c([N+](=O)[O-])nn(-c3cccc(Cl)c3)n2O)c1,-6.03%
3,Cc1ccc(N2C(=O)[C@@H]3C(C(=O)CCN4C(=O)c5ccccc5C4=O)=NN[C@@H]3C2=O)cc1,3.3%
4,Cn1c(=O)c2ccccc2n(Cc2ccccc2F)c1=O,6.5%
5,O=C(Nc1ccccc1C(F)(F)F)NC1CCCCC1,-4.88%
6,COc1ccccc1-n1c(C)nnc1SCC(=O)Nc1cc(C)cc(C)c1,-3.62%
7,COc1cc(C(=O)N/N=C/c2cn(Cc3ccccc3)c3ccccc23)ccc1O,-1.08%
8,CCNc1nc(NC(C)C)nc(N(C#N)C(C)C(=O)N(C)C)n1 (stereo not drawn),6.85%
9,CC(=O)NC(=C(Cl)Cl)S(=O)(=O)c1ccccc1,23.9%
10,COc1ccc(S(=O)(=O)Nc2cc(C(C)C)c(O)cc2C)cc1,-2.38%
11,CC1CCCCN1C(=O)CN1C(=O)NC2(CCCCC2C)C1=O (stereo not drawn),12.1%
12,O=C(CSc1nnc(-c2ccc(O)cc2)n1Cc1ccco1)c1cccs1,-14.9%
13,COc1ccc(NC(=O)CSc2nc3c(c(=O)n2-c2ccccc2OC)SCC3)cc1,-5.73%
14,O=C(NN1C(=O)C2C3CCC(O3)C2C1=O)c1ccc(Br)o1 (stereo not drawn),-5.06%
15,CNC(=O)c1ccc(NC(=O)/C=C/c2cccc(F)c2)cc1,-18.3%
16,CNC(=O)c1c(NC(=O)C2=COCCO2)sc2c1CCN(C(=O)OC)C2,-3.53%
17,O=C(CSc1nnc(CNC(=O)c2ccccc2F)o1)NCc1ccco1,8.92%
18,N#Cc1ccccc1Cn1cc(/C=N/Nc2ccc([N+](=O)[O-])cn2)c2ccccc21,7.73%
19,CN(C)S(=O)(=O)c1cccc2nsnc12,34.9%
20,CCOc1ccc(-n2c(=S)sc3c(=O)[nH]c(SCC(=O)NC(C)CC)nc32)cc1 (stereo not drawn),17.5%
21,CCOC(=O)c1c(-c2ccc(C)o2)csc1NC(=O)CN1CCN(CC)CC1,-43.5%
22,CC(C)(C)c1n[nH]c2c1CCCC2,3.89%
